Measured values: the RNAGym collection of RNA variant scans (doi:10.1073/pnas.2313332121)
Variants at the background level are over-represented here.

B1: TPR 5TU (parent)
chain: GGAUCUUCUCGAUCUAACAAAAAAGACAAAUCUGCCACAAAGCUUGAGAGCAUCUUCGGAUGCAGAGGCGGCAGCCUUCGGUGGCGCGAUAGCGCCAACGUUCUCAACUAUGACACGCAAAACGCGUGCUCCGUUGAAUGGAGUUUAUCAUG

Variants of: B1
Assay: polymerase ribozyme fitness, log enrichment relative to wild type (log ratio); higher = more active; in vitro selection for triplet polymerase activity
Outline: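 Fitness compares each genotype's enrichment to that of the wild type on a logarithmic scale, averaging replicates with inverse-variance weights. The logarithm is base 2. Enrichment came from Illumina sequencing of input and output libraries after one triplicate round of in vitro selection, which included frozen incubation at −7 °C, of PCR-built, transcribed mutant libraries of each subunit of a heterodimeric triplet polymerase ribozyme. Only genotypes with ≥10 input reads and ≥1 read per output were kept.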

Variant	polymerase ribozyme fitness (log ratio)
G84U A106C A107C G124A U151A	≤ -4.2
G84U A137U C149A	≤ -4.2
G84U A138U	≤ -4.2
G84U C87A C116U	≤ -4.2
G84U C87A G136A	≤ -4.2
G84U C87G C118U A119U G126A	≤ -4.2
G84U C87G G88C G143C	≤ -4.2
G84U C87U U90G G126A U130A	≤ -4.2
G84U C93G	≤ -4.2
G84U C99G A147C	≤ -4.2
G84U C108A G124U A137C U145C	≤ -4.2
G84U C116U G143C	-3.37
G84U C129U	-1.42
G84U C131G	-3.96
G84U G86A C93U C123U	-1.15
G84U G86U C129U G152A	≤ -4.2
G84U G92A	≤ -4.2
G84U G92C U127C A142C	≤ -4.2
G84U G94A C96A	-3.87
G84U G94C U101G	≤ -4.2
G84U G126U G133U	≤ -4.2

Variant	polymerase ribozyme fitness (log ratio)
G84U G133U C149U	≤ -4.2
G84U U90A C108A	≤ -4.2
G84U U127A U134G	≤ -4.2
G84U U130A U145C	-4.13
C85A A91G	-3.36
C85A A106G	-2.01
C85A A107U A147C U151C	≤ -4.2
C85A A122G	-2.54
C85A A147G	-0.743
C85A C95U G140A	≤ -4.2
C85A C96U A137U U144A	≤ -4.2
C85A C96U G100U G141U	≤ -4.2
C85A C99A	-2.8
C85A C99G	-3.49
C85A C103G A147U	-2.48
C85A C105U	-1.89
C85A C125A	-2.27
C85A C125A A137G	-2.28
C85A C129G	-2.95
C85A C149U	-1.59
C85A G117A A138G	-4.18

Variant	polymerase ribozyme fitness (log ratio)
C85A G124U	-1.9
C85A G126A C149G	≤ -4.2
C85A G126C G133A	≤ -4.2
C85A G128A U144G	≤ -4.2
C85A U127A U148A	≤ -4.2
C85A U135A	-0.589
C85A U135G A137U	≤ -4.2
C85A U145G	-1.06
C85G A121C G141U U151C	≤ -4.2
C85G A121G C132U	-2.88
C85G A122C	-1.98
C85G C87U A110G	≤ -4.2
C85G C93U	≤ -4.2
C85G C93U C131A U148C	≤ -4.2
C85G C105G A113U	≤ -4.2
C85G C125A U130C	-1.52
C85G G86U U90A G140U C149G	≤ -4.2
C85G G92C C99A U146A	≤ -4.2
C85G G94U	-0.835
C85G G94U C118G	-0.928
C85G G124A G133A	≤ -4.2

Variant	polymerase ribozyme fitness (log ratio)
C85G G126A U146A	-1.79
C85G G126U A142C	≤ -4.2
C85G G140C	≤ -4.2
C85G G141A C149G	≤ -4.2
C85G U102C	≤ -4.2
C85G U109G U144C	≤ -4.2
C85U A89G A106G G117A G126C G143C	≤ -4.2
C85U A97C C99G U104C A138G	≤ -4.2
C85U A98G U111G	≤ -4.2
C85U A106C A150C	≤ -4.2
C85U A115U	-2.38
C85U A150C G152U	-3.38
C85U C87G C95G C131A U134G A147U	≤ -4.2
C85U C87U A107U	≤ -4.2
C85U C87U A107U C131A G140U G141C U144A U146G	≤ -4.2
C85U C87U C108U C114A	≤ -4.2
C85U C87U U144G	0.338
C85U C93G A150G	≤ -4.2
C85U C105U A106C U135C G141A	-3.94
C85U C116U	-0.233
C85U C125G G136A	-0.203
